Data published in PubChem BioAssay AID504832 (National Center for Advancing Translational Sciences (NCATS), 2011).
Values joined by “and” are separate entries in the source; they are usually repeats but may differ in a detail not shown here. Identical values can stand only once. About 18,000 (5.8%) of roughly 310,000 compounds were called active. The shares of active, inactive and inconclusive entries below differ from those in the screen. Calls follow the shape of the dose curve; as a rule, active = well fitted inhibition curve with a large enough effect; inconclusive = small, poorly fitted or top-dose-only effect, or another doubt; inactive = no such curve, though single readings can be large or run the other way. Potencies of inconclusive entries are left out as doubtful fits.

Assay: Primary qHTS for delayed death inhibitors of the malarial parasite plastid, 48 hour incubation
Details: P. falciparum luciferase growth in erythrocytes; series mostly up to 28.7 µM
Summary of the method: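 A one-generation exposure of luciferase-tagged malaria parasites in RPMI 1640/Albumax erythrocyte culture, 37 C and 5% CO2. Inhibition is inferred from decreased luminescence after adding detection reagent.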
Potency is read from the fitted curve at half-maximal effect; tags tell the direction and shape of the fitted curve.

Compound	Potency
Cc1ncccc1C(=O)N1CCCC(CNC(=O)c2ccc(-c3ccccc3)cc2)C1 (stereo not drawn)	inconclusive [inhibitor, single point]
CC(=O)N1CCN(c2ccc(NC(=O)c3ccc(C(C)(C)C)cc3)cc2)CC1	active: 10.4 µM
Cc1ccc(C(=O)Nc2cccc([N+](=O)[O-])c2)cc1S(=O)(=O)Nc1ccc(NC(=O)c2ccccc2)cc1	inconclusive [inhibitor, single point]
C=CCOC(=O)COc1ccc2c(C)c(C)c(=O)oc2c1C	inconclusive [inhibitor, single point]
COc1ccc(-c2ccnc3c(Br)c(C)nn23)cc1	inconclusive [inhibitor, single point]
Cc1cc(C)nc(NN=C2CCCC2)n1	active: 11.7 µM
COc1ccccc1C(=O)NCC(=O)OCC(=O)c1ccc2c(c1)-c1ccccc1C2	inactive
Cc1ccc(C(C)C)cc1OCC(=O)Nc1ccc(N2CCCCC2)cc1	inconclusive [inhibitor, single point]
COc1ccc(-n2c(=O)c(CCC(=O)N3CCC(C)CC3)nc3ccccc32)cc1	active: 9.28 µM
Cc1ccc(C2=NN(C(=O)CN3C(=O)c4ccccc4S3(=O)=O)C(c3ccco3)C2)cc1 (stereo not drawn)	inconclusive [inhibitor, partial curve, poor fit]
COc1cc2ncnc(N[C@H](C)c3ccccc3)c2cc1OC	inconclusive [inhibitor, single point]
CC(C)C1(C)C(=O)N=C2c3ccccc3C(=O)N21 (stereo not drawn)	inactive
CCN1CCCC1CNS(=O)(=O)c1ccc(C(=O)Nc2ccccc2)cc1 (stereo not drawn)	inconclusive [inhibitor, partial curve, poor fit]
COc1ccc(-c2csc(N3CCN(c4cc5c(cc4Cl)nc(-c4ccncc4)n5CCOCCO)CC3)n2)cc1	inconclusive [inhibitor, full curve]
COC(=O)c1c(NC(=O)C(C)(C)C)sc2c1CCN(Cc1ccccc1)C2	inconclusive [inhibitor, partial curve]
Cc1cc(C)cc(N(C(=O)Cn2nnc(-c3ccccc3)n2)C(C(=O)NC2CCCCC2)c2ccccn2)c1 (stereo not drawn)	inconclusive [inhibitor, partial curve, poor fit]
CCOC(=O)c1c(C)c(C(=O)Nc2ccc(F)cc2)c(C)n1C	inactive
Nc1ncnc2c1nc(SCCO)n2Cc1ccccc1	inactive
COCCN(C(=O)c1csnn1)C(C(=O)NC1CCCCC1)c1ccccc1F (stereo not drawn)	inactive
CCNC(=S)Nc1cc(OCC)c(NC(=O)c2cccs2)cc1OCC	inactive
Cc1ccccc1N1CC(C(=O)Nc2nnc(SCCN3CCOCC3)s2)CC1=O (stereo not drawn)	inconclusive [inhibitor, partial curve]
Cc1ccc(-c2cc(C(=O)Nc3cccnc3)[nH]n2)c(O)c1C	inconclusive [inhibitor, single point]
CN1CCc2cccc3c2[C@H]1Cc1ccc(O)c(O)c1-3	active: 2.08 µM and active: 1.51 µM and active: 2.94 µM

Compound	Potency
Cc1c(C)n(CC(O)CN2CCCCCC2)c2ccccc12 (stereo not drawn)	inconclusive [inhibitor, full curve, poor fit]
CCn1nnc(NC(=O)COc2ccc(C3CCCCC3)cc2)n1	inconclusive [inhibitor, single point]
CN(c1ccccc1)S(=O)(=O)c1cccc(C(=O)NCCc2ccc(O)c(O)c2)c1	active: 13.1 µM
COc1ccc(-c2ccc(OC)c([C@H]3[C@@H]4C=CCC[C@@]4(C)C(=O)N3Cc3ccccc3)c2)cc1OC	active: 8.28 µM
CCS(=O)(=O)Nc1ccc(C2=NN(C(=O)c3ccccc3)C(c3cccs3)C2)cc1 (stereo not drawn)	inconclusive [inhibitor, single point]
C/C(=N/NC(=O)CN1CCN(Cc2ccccc2Cl)CC1)c1ccco1	inconclusive [inhibitor, partial curve, poor fit]
COc1ccc(CNC(=O)COC(=O)c2c(-c3c(F)cccc3Cl)noc2C)cc1OC	inconclusive [inhibitor, single point]
Cc1ccc(NC(=O)CSCC(=O)Nc2cc(Cl)ccc2N2CCN(C)CC2)cc1	active: 13.1 µM
Cc1ccccc1NC(=O)Cc1nc(COC(=O)c2cc([N+](=O)[O-])ccc2N)cs1	inconclusive [inhibitor, single point]
COc1cc(/C=N/NC(=O)CNC(=O)c2ccc3c(c2)OCCO3)ccc1O	inconclusive [inhibitor, single point]
CCOC(=O)c1nc(Nc2ccc(Nc3ccccc3)cc2)c2ccccc2n1	inconclusive [inhibitor, partial curve]
Cc1ccc(OCc2ccccc2C)c([N+](=O)[O-])n1	inactive
O=C(Nc1ccccc1-c1nnn(CC(=O)N2CCCc3ccccc32)n1)c1ccco1	inconclusive [inhibitor, single point]
Cc1cc(C)c(NC(=O)Nc2ccccc2)c(Cl)c1	inactive
COc1ccc(C(O)c2nccn2Cc2ccccc2)cc1OC (stereo not drawn)	inconclusive [inhibitor, partial curve, poor fit]
COc1cc(-c2nnc3sc(C4CCCCC4)nn23)cc(OC)c1OC	active: 8.28 µM
CC(C)C1CC(CCNCc2ccc(N(C)C)cc2)(c2ccccc2)CCO1 (stereo not drawn)	inconclusive [inhibitor, single point]
COc1cc(/C=C2\SC(=Nc3ccc(O)cc3)NC2=O)cc(OC)c1O	active: 3.7 µM
CN(Cc1ccccc1)c1c([N+](=O)[O-])c(=O)n(C)c2ccccc12	inconclusive [inhibitor, single point]
CC(Sc1nnc(-c2cccnc2)n1-c1ccccc1F)C(=O)N1CCCc2ccccc21 (stereo not drawn)	inconclusive [inhibitor, partial curve, poor fit]
CCN(CC(=O)NCc1cccs1)C(=O)c1ccc(-c2cccc(C(F)(F)F)c2)o1	inconclusive [inhibitor, single point]
O=C(CN1CCc2ccccc2C1)N1CCN(S(=O)(=O)c2ccccc2)CC1	inactive
Cc1ccc(S(=O)(=O)N(C)C)cc1NC(=O)COc1cccc(-n2cnnn2)c1	inconclusive [inhibitor, single point]

Compound	Potency
CC(C)C[C@H](NC(=O)c1nc[nH]c1C(=O)N1CCN(c2ccccc2)CC1)C(=O)OC(C)(C)C	inconclusive [inhibitor, partial curve]
COC(=O)c1ccc(/C=N/NC(=S)NCCN2CCOCC2)cc1	inconclusive [inhibitor, single point]
CSc1nc(N)nc(SCC(=O)C23CC4CC(CC(C4)C2)C3)c1C#N	inconclusive [inhibitor, single point]
Cc1nn(Cc2ccc(Cl)cc2)c(C)c1NC(=O)c1cc(-c2ccco2)on1	inconclusive [inhibitor, single point]
CCC(NC(C)C)C(O)c1ccc(O)c(O)c1 (stereo not drawn)	inconclusive [inhibitor, single point]
CCOc1cccc2sc(=NC(=O)CCS(=O)(=O)c3ccc(F)cc3)n(C)c12	inconclusive [inhibitor, single point]
CSc1ccccc1NC(=O)CN(Cc1ccc(Cl)cc1)S(C)(=O)=O	inconclusive [inhibitor, single point]
Cc1[nH]c(C)c(S(=O)(=O)Nc2ccc(OC(F)(F)F)cc2)c1C(=O)N1CCCCC1	inactive
Cc1ccc(CN2C3CCCC2CC(NC(=O)c2ccc(C)cc2)C3)cc1 (stereo not drawn)	inconclusive [inhibitor, single point]
COc1ccc([C@@H]2CC=C(C(=O)O)[C@H](c3ccccc3F)N2S(=O)(=O)c2ccc(C)cc2)cc1OC	inconclusive [inhibitor, single point]
COc1ccc(C(CNc2ncnc3sccc23)N(C)C)cc1OC (stereo not drawn)	inactive
CCCCN(C)C(=O)Cn1c(=O)oc2cc(S(=O)(=O)N3CC(C)CC(C)C3)ccc21 (stereo not drawn)	inconclusive [inhibitor, single point]
COc1ccc(Sc2ccc(/C=C3\C(=O)NN(c4ccccc4)C3=O)o2)cc1	inactive
CCn1c(SCC(=O)NCc2ccccc2)nc2c(c1=O)SC(C)C2 (stereo not drawn)	inactive
COc1ccc(-c2noc(C3CCCN(S(=O)(=O)c4cccc(Cl)c4C)C3)n2)cc1OC (stereo not drawn)	active: 13.1 µM
Cc1[nH]n(-c2ccccc2)c(=O)c1/C=N/c1ccccn1	inactive
O=C(CCl)Nc1cc(SCC(O)CO)cc([N+](=O)[O-])c1 (stereo not drawn)	inconclusive [inhibitor, single point]
COc1cccc2cc(C(=O)c3ccccc3)oc12	inactive
CC(=O)c1cccc(N(C(=O)c2ccco2)C(C(=O)NC2CCCCC2)c2ccc(C)o2)c1 (stereo not drawn)	inconclusive [inhibitor, partial curve, poor fit]
CCCCc1c(C)c(C#N)c2nc3ccccc3n2c1Nc1c(C)n(C)n(-c2ccccc2)c1=O	active: 1.85 µM
CCc1ccccc1NC(=O)CN(C)C(=O)c1cc(C2CC2)nc2c1cnn2C(C)C	active: 11.7 µM
Nc1nc(N2CCN(C(c3ccccc3)c3ccccc3)CC2)n[nH]1	inconclusive [inhibitor, single point]
